This is one part of the list.

These results are taken from PMC12136788.

First the molecules themselves.
B1: chr17:42842016:42842117:+|3pUTR|ENSG00000131467|msi1|FALSE|unique (ssRNA)
RNA: GGGAGUUCUACAGUCCGACGAUCUUACUGUUUCUUUCCUCUGUGGGGCAUUGGAUCCUCCCACAGUUGCCCUGGUGAUGACUUAGGGCUUCCCAUCUGUGUACAUCCCACUUUGAAUCUUGAUCGUGACAAGAAAUACCUUAGCAACAGAGGAUUGAGCAUCA
B2: ENSG00000070961:be:win_4301|3pUTR|ENSG00000070961|bound_else_gene|NA|bound_elsewhere_windowed (ssRNA)
RNA: GGGAGUUCUACAGUCCGACGAUCGCUAAUACUAAUAGCCAAAUAGAUAACACUAAUGCUUUGUUUAAAAAAACGAAAAAAACAAAACAAAACAAAAAAACAUGAGCAGUGGUGUUCUAAUGAAGUUAUGACAUCUGUCCUAAUCAACAGAGGAUUGAGCAUCA
B3: chr10:22535117:22535218:-|3pUTR|ENSG00000150867|unk|total|mutant (ssRNA)
RNA: GGGAGUUCUACAGUCCGACGAUCAAGGUACACAUACAUUAUUUGAGUAACUGUUUCCUUGGGGGCCAAUCUGUGUAUGCUUUCCGAAGUUUACAGAAUGCUUUUAUUUUUGUCUAUAACAAACAGUCUGUCAUUUAUUUCUGUCAACAGAGGAUUGAGCAUCA
B4: chr3:149084675:149084859:-|CDS|ENSG00000071794|unk|FALSE|unique (ssRNA)
RNA: GGGAGUUCUACAGUCCGACGAUCCCAACUUUCUUUCCACGUUUUGAAUUCCAAGAUGUUAUCCCUCCAGAUGACUUUCUAACUAGUGAUGAAGAAGUAGAUUCCGUUUUAUUUGGAAGUUUGAGAGGUCAUGUGGUUGGACUACAACAGAGGAUUGAGCAUCA
B5: chr1:93180074:93180188:-|CDS|ENSG00000117500|unk|FALSE|bound_elsewhere (ssRNA)
RNA: GGGAGUUCUACAGUCCGACGAUCCUGGCCGCUCUGCCUCCGGUGCUGCUGCCUGGGGCGGCCGGCUUCACACCUUCCCUCGAUAGCGACUUCACCUUUACCCUUCCCGCCGGCCAGAAGGAGUGCUUCUACCAGCCCAUGCCCCAACAGAGGAUUGAGCAUCA
B6: ENSG00000092929:stop:overlap|stop_codon|ENSG00000092929|stop_codon|NA|stop_codon (ssRNA)
RNA: GGGAGUUCUACAGUCCGACGAUCUGAGGCUGCGGCGGCACCGGGCCAAGCAGGCCUCCCAGCAUGCCUUGCGGCCGGCACCGUAGCCGUAGAGGUUUGCGGUGGGGCUGGGUCCCCGGUGGGGACUUGCAAGGGCUUUCCUGUCAACAGAGGAUUGAGCAUCA
B7: chr3:48467913:48467962:-|3pUTR|ENSG00000164054|msi1_unk|FALSE|overlapping (ssRNA)
RNA: GGGAGUUCUACAGUCCGACGAUCCCCAGACAUGAAUACCUCGUGUUCCUCCUCCCUCUAUUACUGUUUCACCAGAGCUGUCUUAGCUCAAAUCUGUUGUGUUUCUGAGUCUAGGGUCUGUACACUUGUUUAUAAUAAAUGCAACAACAGAGGAUUGAGCAUCA
B8: chr14:103519669:103519777:-|3pUTR|ENSG00000166165|unk|total|mutant (ssRNA)
RNA: GGGAGUUCUACAGUCCGACGAUCCUGAUGUUCGCCGUCUGGCGAGCCCUCCGCCUUGCUGCCGAGACUUCCGUCACCCUUGGCCGAGUUUAUUUUUUUGAUGGCUAAGAUACUGCUGAUGCUGAAAUAAACCCGGGUUUUGGCCAACAGAGGAUUGAGCAUCA
B9: chr14:101901747:101901860:+|CDS|ENSG00000078304|unk|total|mutant (ssRNA)
RNA: GGGAGUUCUACAGUCCGACGAUCCUGGCCAAAGACUCACAGUCCAAAAGAAGUAAUGUUCUUAAACGAAUCCGAAGAGAUUUCCGAUGUCAUUGAACCAUCAGAAUUUGUGAAGAUCAUGGAACCCCUCUUCCGGCAGUUGGCCAACAGAGGAUUGAGCAUCA
B10: chr2:27243795:27243896:+|3pUTR|ENSG00000084774|unk|FALSE|unique (ssRNA)
RNA: GGGAGUUCUACAGUCCGACGAUCACUUAAUAAACAGCCGAGCUGUCCCUUGAUGCUGAGUGUAGUAGAACAGAGCUUUCUUUUAGAAAAUUGAGCAGAUUCCCAAAUUAUAAGAGCAGCCUCACCAGGCAGGGCUCUGGCUAGCAACAGAGGAUUGAGCAUCA
B11: chr12:122865329:122867115:-|three_prime_utr|ENSG00000139722|control|control|control (ssRNA)
RNA: GGGAGUUCUACAGUCCGACGAUCUGGAGGUCCGCUCUGUGCCAAGGGCUCUGGGGCCCUGGGCCAGCGUGUCUGUCUGAUUUUAGAACUGUAGGUCAGUGGUGAGUAGUAGGAGCCCAGGCUUUGGGCAUCAAGGCAGUUGUGCAACAGAGGAUUGAGCAUCA
B12: chr2:128192036:128192329:+|3pUTR|ENSG00000136731|msi1|FALSE|unique (ssRNA)
RNA: GGGAGUUCUACAGUCCGACGAUCAUGUCCUGGUGUCACUCAUUGCCUCUUAUCUGUCGCCAUUCUAAUAUAAGUCAGCUUAAUAGUUGACUCUGAAUAAUGCAAAACCCAGCUUGCUUCCAGAAUGGCCUAGGACCCUCCUCCCAACAGAGGAUUGAGCAUCA
B13: chr17:63423787:63423888:+|3pUTR|ENSG00000170921|msi1|total|mutant (ssRNA)
RNA: GGGAGUUCUACAGUCCGACGAUCCUAACUCAAGCCCCAGCCUCUUUCCACACUCCCUGAUACCUAAGGACUGCUUUCUCAGCCCGACCAGGGUGGGCAUCAGCGACGCCUUCUCAGCCCGACCAGGGCCGGCAUCAGCGUCCUCAACAGAGGAUUGAGCAUCA
B14: ENSG00000166086:stop:overlap|stop_codon|ENSG00000166086|stop_codon|NA|stop_codon (ssRNA)
RNA: GGGAGUUCUACAGUCCGACGAUCUCCUGCUGCUGCUUUUCAGGGAGUCAAGUCUAGUCUGCUUUCCAAGGCUGCAUUCUAAGUAGUGAAGCCUCAACUUCAUAUUUACCUAAAGCAGGACACCACACUCUUCCCCUGGCAGCCCAACAGAGGAUUGAGCAUCA
B15: chr19:3536616:3536717:+|3pUTR|ENSG00000105325|msi1|total|mutant (ssRNA)
RNA: GGGAGUUCUACAGUCCGACGAUCACCGCCGCAGGGCCAGGCGGACGGCGUGAGGUUUGUGUUGGGGCUGGUUCUGCCCAUGCCCGGGGGUGGGGGAGCUCCCAGGACAGACCAGCCUUGUUUCUCAUGUAAUGCAGUGACGCUCAACAGAGGAUUGAGCAUCA
B16: chr5:97028609:97028710:+|3pUTR|ENSG00000113441|msi1|FALSE|bound_elsewhere (ssRNA)
RNA: GGGAGUUCUACAGUCCGACGAUCUUGCAAAAGCCAAGGUAAAGCCAGGAUCGCUGCCAAGUUGUUUGCACUCUUUGGAGUUCUAGUUAGCUCAGGGCCUGACUGUAUUUUUCAUCCAUCUUUUCUGAAGUGUCUUUGGGCAGUCAACAGAGGAUUGAGCAUCA
B17: chr4:186619803:186619904:-|CDS|ENSG00000083857|msi1|FALSE|unique (ssRNA)
RNA: GGGAGUUCUACAGUCCGACGAUCAGACGGAGACCCUUUCAGCCAGUUCACUAUUAACUUCAAUACUGGAGUUAUCAAUGUCAUAGCUCCUCUGGACUUUGAGGCCCACCCGGCAUAUAAGCUGAGCAUACGCGCAACUGACUCCAACAGAGGAUUGAGCAUCA
B18: chr1:169588848:169589605:-|three_prime_utr|ENSG00000174175|control|control|control (ssRNA)
RNA: GGGAGUUCUACAGUCCGACGAUCAUAAUGCAUUUGCUGCAGGUUUCCAUAAACACCCAUGAAUCAAAGACAUGGAAUUACCUUAGAUUAGCUCUGGACCAGCCUGUUGGACCCGCUCUGGACCAACCCUGUUUCCUGAGUUUGCAACAGAGGAUUGAGCAUCA
B19: ENSG00000092201:stop:overlap|stop_codon|ENSG00000092201|stop_codon|NA|stop_codon (ssRNA)
RNA: GGGAGUUCUACAGUCCGACGAUCUUCCCCGCGUGCCAGCCUUGGUCAUGCAUAGCAGCACCUCUCGCAGUCUCUUCCCGCCCUAGAAGAGGCAACAUCCUUCCCUCCUACUCCGUGGUCACGUCUUGCUGCCCUCCCCUGCCGCAACAGAGGAUUGAGCAUCA
B20: ENSG00000077092:stop:overlap|stop_codon|ENSG00000077092|stop_codon|NA|stop_codon (ssRNA)
RNA: GGGAGUUCUACAGUCCGACGAUCUGCUGAAGGCCGCCUGCCUGGACAUCCUGACCGCCAGGACCUUGAGGAACCGACAAAAGUAGAUAAGCUACAAGAACCAUUGCUGGAAGCACUAAAAAUUUAUAUCAGAAAAAGACGACCCAACAGAGGAUUGAGCAUCA
B21: chr12:68839811:68839877:+|CDS_3pUTR|ENSG00000135679|msi1_unk|FALSE|overlapping (ssRNA)
RNA: GGGAGUUCUACAGUCCGACGAUCAUAAGCCCUGCCCAGUAUGUAGACAACCAAUUCAAAUGAUUGUGCUAACUUAUUUCCCCUAGUUGACCUGUCUAUAAGAGAAUUAUAUAUUUCUAACUAUAUAACCCUAGGAAUUUAGACCAACAGAGGAUUGAGCAUCA
B22: chr10:122937732:122937852:-|CDS|ENSG00000119965|unk|FALSE|unique (ssRNA)
RNA: GGGAGUUCUACAGUCCGACGAUCGUAAGUGACAACUCAAAUAUACCCAACUCCGAGUUGCUGCCUUUUCUCCAGAAUUUAUGUAGUCAAGUUAAUCAUCUCCAUGUGGGAAAUAAGACCGAGUGUCAGGAAAACAUCACCAAGCAACAGAGGAUUGAGCAUCA

The test addresses MSI1 full-length (mouse, UniProt Q61474 1-362). Briefly: nsRBNS (natural sequence RNA bind-n-seq); RBNS binding buffer (assumed for nsRBNS): 25 mM Tris pH 7.5, 150 mM KCl, 3 mM MgCl2, 0.01% Triton X-100, 500 ug/ml BSA, 20 U/ml SUPERase-In, 4 C; UNK is unkempt and MSI1 is Musashi-1; names of the RNAs are library labels; protein concentration not given here; high values mean tight binding.
Sequence of UniProt Q61474 (Q61474 whole entry): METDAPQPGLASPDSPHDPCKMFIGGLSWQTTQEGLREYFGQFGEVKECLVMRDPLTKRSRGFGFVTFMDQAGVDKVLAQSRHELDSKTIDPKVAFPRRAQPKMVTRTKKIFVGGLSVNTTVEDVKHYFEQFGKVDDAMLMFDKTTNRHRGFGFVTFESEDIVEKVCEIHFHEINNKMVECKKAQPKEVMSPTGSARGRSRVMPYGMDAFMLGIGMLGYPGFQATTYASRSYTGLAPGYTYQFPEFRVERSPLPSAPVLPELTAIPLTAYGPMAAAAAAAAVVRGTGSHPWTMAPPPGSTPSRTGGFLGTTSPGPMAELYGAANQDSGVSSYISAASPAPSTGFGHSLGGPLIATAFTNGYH
B1 yielded a binding signal of 0.379 enrichment R.

The molecule B2 displayed a binding signal of 1.4 enrichment R.

Molecule B3 showed a binding signal of 0.455 enrichment R.

B4 had a binding signal of 2.56 enrichment R.

Take B5: the binding signal worked out at 0.678 enrichment R.

B6: the binding signal worked out at 0.555 enrichment R.

As for B7, the binding signal turned out to be 0.551 enrichment R.

In the case of B8, the binding signal was 0.303 enrichment R.

Molecule B9 showed a binding signal of 0.256 enrichment R.

Take B10: the binding signal came out at 1.26 enrichment R.

B11 yielded a binding signal of 1.64 enrichment R.

Molecule B12 had a binding signal of 0.49 enrichment R.

Turning to B13, the binding signal is 0.645 enrichment R.

Turning to B14, the binding signal was found to be 0.461 enrichment R.

B15 had a binding signal of 0.471 enrichment R.

As for B16, the binding signal came out at 0.401 enrichment R.

As to B17, the binding signal was 0.383 enrichment R.

Molecule B18 came in with a binding signal of 1.07 enrichment R.

Turning to B19, the binding signal was found to be 0.9 enrichment R.

B20 came in with a binding signal of 1.49 enrichment R.

Molecule B21 registered a binding signal of 3.21 enrichment R.

Molecule B22 came in with a binding signal of 1.04 enrichment R.
